Data as given in PubChem BioAssay AID1159614 (National Center for Advancing Translational Sciences (NCATS), 2016).
Among all 45,000 compounds or so, about 65 (0.1%) were called active. Calls follow the shape of the dose curve; as a rule, active = well fitted activation curve with a large enough effect; inconclusive = small, poorly fitted or top-dose-only effect; inactive = no such curve, though single readings can be large or run the other way. Some of the results follow.

Target: Galactocerebrosidase (Homo sapiens) (UniProt P54803)
Chain of UniProt P54803 (P54803 whole entry, looked up): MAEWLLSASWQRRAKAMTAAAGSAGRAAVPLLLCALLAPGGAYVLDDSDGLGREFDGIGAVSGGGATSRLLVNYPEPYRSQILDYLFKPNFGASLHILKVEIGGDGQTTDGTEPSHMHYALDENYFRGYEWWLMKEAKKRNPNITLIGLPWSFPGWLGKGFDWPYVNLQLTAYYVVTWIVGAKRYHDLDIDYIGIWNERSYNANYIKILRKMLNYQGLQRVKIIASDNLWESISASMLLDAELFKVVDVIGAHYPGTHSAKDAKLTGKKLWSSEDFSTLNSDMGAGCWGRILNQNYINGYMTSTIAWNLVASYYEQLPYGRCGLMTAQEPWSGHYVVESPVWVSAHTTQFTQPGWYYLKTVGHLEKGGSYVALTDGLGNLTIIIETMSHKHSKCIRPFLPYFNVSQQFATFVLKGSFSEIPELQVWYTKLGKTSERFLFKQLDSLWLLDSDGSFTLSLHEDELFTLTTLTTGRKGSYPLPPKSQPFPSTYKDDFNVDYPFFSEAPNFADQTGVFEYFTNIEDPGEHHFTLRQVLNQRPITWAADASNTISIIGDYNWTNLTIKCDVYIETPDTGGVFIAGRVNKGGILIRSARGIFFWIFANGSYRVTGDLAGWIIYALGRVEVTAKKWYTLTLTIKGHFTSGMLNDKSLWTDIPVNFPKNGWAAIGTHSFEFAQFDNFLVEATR
Assay: A Novel Cell-Based Assay to Identify Small Molecules for B -Galactocerebrosidase; also: 0% is about no effect; nearly all actives have a fitted effect of over 65% in size
Conditions: 145M-Twi-hGALC-G270D cells, HMU-beta-Gal fluorescence, 48 h; series mostly up to 57.5 µM; activation: at the top concentration
Outline: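 qHTS, 1536-well; 145M-Twi-hGALC-G270D cells (WT line also made) in DMEM/F12 + 10% FBS; compound incubation on live cells; HMU-β-gal 0.1 mM final, pH 5.2, NaTC; carbonate stop; fluorescence increase = enhanced residual activity.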

activation, inactive:
COc1cccc(CNC(=O)c2ccc3c(c2)c(C)c(C)n3Cc2ccccc2)c1 -4.81%
COc1ccc(CNC(=O)c2cc3cc4cc(OC)ccc4nc3o2)cc1 -16%
NC(=O)C1CCN(C(=O)c2ccc(NC(=O)c3nsc4ccccc34)cc2)CC1 -7.77%
CCOc1ccccc1N(CC)C(=O)Cn1ncc2c([nH]c3ccccc32)c1=O -15%
COc1ccc(OC)c(NS(=O)(=O)c2ccc3c(c2)C(C)(C)C(=O)N3C)c1 -9.25%
COc1cc(Cl)c(C)cc1NC(=O)C1CCN(c2nc3ccccc3n3cccc23)CC1 -34.5%
Cc1ccc(C)c(NC(=O)N2CCN(C(=O)c3nsc4ccccc34)CC2)c1 -10.7%
O=C(c1ccccc1)N1CCN(CCc2ccncc2)CC1 3.25%
CC(=O)c1ccc(NC(=O)c2nc3ccccc3nc2N2CCCCC2)cc1 -7.2%
Clc1cccc(-c2ccc(CNCCSc3nnnn3-c3ccccc3)o2)c1 -14.9%
COC(=O)c1ccc2c(c1)N(Cc1ccc(F)cc1)C(=O)c1ccccc1S2 -8.95%
Cn1c(NCCO)nc2c1c(=O)n(Cc1cccc(F)c1)c(=O)n2C -8.93%
CCCCN1C(=O)C(O)(c2c[nH]c3ccccc23)c2cc(Br)ccc21 (configuration not stated) -2.24%
CCCCN(CCCC)S(=O)(=O)c1ccc2oc(C(=O)NCc3ccc(C)cc3)c(C)c2c1 22.4%
CCc1ccc(-c2[nH]c3c(c2-c2sc(C)c(C(=O)OC)c2O)c(=O)[nH]c(=O)n3C)cc1 -8.37%
Cc1coc2c(C)c3oc(=O)c(CCC(=O)NCCc4ccccc4)c(C)c3cc12 -9.33%
Cc1nn(C(=O)c2ccc(Br)cc2)c(C)c1S(=O)(=O)N1CCOCC1 -8.87%
COc1ccc(-c2cc(C(F)(F)F)nc(SCCC(=O)Nc3cc(C)ccc3O)n2)cc1 -15.7%
COc1ccc2c(c1)sc1ncc(C(=O)NCc3ccc(OC(C)C)cc3)c(=O)n12 -7.05%
O=C(CCCN1CCN(c2ccc(F)cc2)CC1)NC1c2ccccc2CSc2ccccc21 (configuration not stated) 0.198%
CCOc1ccc(CCNC(=O)c2cnc3c(-c4ccc(F)cc4)c(C)nn3c2C)cc1OCC 3.25%
Cc1ccc(NC(=O)Cn2c(=O)n(Cc3ccco3)c(=O)c3sc4ccccc4c32)cc1C -10.1%
Oc1c(C(c2ccc(Cl)cc2)N2CCC3(CC2)OCCO3)sc2nc(-c3ccco3)nn12 (configuration not stated) -10.7%
CCn1c(=O)c(C(=O)Nc2ccc(C(C)=O)cc2)nc2ccccc21 -13.7%
O=C(Cn1c(=O)oc2ccccc21)Nc1ccc(C(=O)O)cc1 -5.96%
COc1cc(NC(=O)c2cccc3c2C(=O)N(C2CCCCC2)C3)cc(OC)c1 3.64%
CCOc1ccccc1NC(=O)CSc1nc2cc(OC)c(OC)cc2c2nc(-c3ccccc3)nn12 -23.2%
